Measured values taken from PubChem BioAssay AID588579 (National Center for Advancing Translational Sciences (NCATS), 2011).
About 2,200 (0.55%) of roughly 400,000 compounds were called active. The inconclusive results got no clear call from the source; some entries with a clear call stand among them for comparison. The call rests on the fitted dose curve; in most records, active means well fitted inhibition curve with a large enough effect; inconclusive means small, poorly fitted or top-dose-only effect, or another doubt; inactive means no such curve, though single readings can be large or run the other way. Where the call is inconclusive, the potency comes from a doubtful curve fit.
Potency means the concentration at half of the fitted maximal effect; tags describe the fitted curve by direction and shape.

Each compound was assayed against DNA polymerase kappa (Homo sapiens) (UniProt Q9UBT6) (assay: qHTS for Inhibitors of Polymerase Kappa). Conditions: purified Pol kappa, fluorescent DNA synthesis assay, 10 min; series mostly up to 107 µM.
Sequence of UniProt Q9UBT6 (Q9UBT6 whole entry, looked up): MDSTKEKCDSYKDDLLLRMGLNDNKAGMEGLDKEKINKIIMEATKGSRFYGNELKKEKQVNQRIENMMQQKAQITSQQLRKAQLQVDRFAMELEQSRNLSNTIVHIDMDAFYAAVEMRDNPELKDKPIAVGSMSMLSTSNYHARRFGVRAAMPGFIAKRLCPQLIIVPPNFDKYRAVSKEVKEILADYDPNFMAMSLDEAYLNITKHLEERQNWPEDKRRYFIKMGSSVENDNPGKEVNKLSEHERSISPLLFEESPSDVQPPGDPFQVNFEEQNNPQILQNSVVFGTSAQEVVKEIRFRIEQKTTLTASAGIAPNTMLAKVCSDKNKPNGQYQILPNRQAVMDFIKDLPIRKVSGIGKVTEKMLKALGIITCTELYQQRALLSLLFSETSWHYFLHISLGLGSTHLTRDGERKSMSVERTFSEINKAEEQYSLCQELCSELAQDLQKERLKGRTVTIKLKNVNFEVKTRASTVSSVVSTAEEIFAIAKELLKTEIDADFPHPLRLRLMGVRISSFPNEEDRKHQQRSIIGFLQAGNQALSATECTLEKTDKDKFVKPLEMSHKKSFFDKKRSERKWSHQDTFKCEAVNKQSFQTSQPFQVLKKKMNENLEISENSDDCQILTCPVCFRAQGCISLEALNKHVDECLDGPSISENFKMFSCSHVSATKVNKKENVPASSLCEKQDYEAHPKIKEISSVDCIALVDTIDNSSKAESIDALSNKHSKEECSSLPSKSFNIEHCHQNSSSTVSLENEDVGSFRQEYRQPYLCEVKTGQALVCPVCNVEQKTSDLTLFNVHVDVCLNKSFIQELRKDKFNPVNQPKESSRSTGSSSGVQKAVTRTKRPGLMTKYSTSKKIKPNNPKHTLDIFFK
Procedure, shortened: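 Enzyme at 10 nM met test compounds for 15 min at room temperature. Substrate addition (50 nM final) began the reaction, which was monitored by fluorescence at 0 and 10 min.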
With O=C(O)C1C2C=CC(CC2)C1C(=O)O (centres undefined) the Potency was inconclusive: 100 µM [inhibitor, single point].
O=[N+]([O-])c1ccc(O)c(/C=N/NC(=S)Nc2ccc(Cl)cc2Cl)c1 was tested, and the Potency was inconclusive: 89.1 µM [inhibitor, single point].
With Cc1c(NC(=O)c2ccc3c(c2)C(=O)N(Cc2ccco2)C3=O)cccc1C(=O)O the Potency was inconclusive: 89.1 µM [inhibitor, partial curve, poor fit].
In the case of Cc1cc(C)c2nc3nc(C)c(C)cc3c(N)c2c1, the Potency is reported as inconclusive: 89.1 µM [inhibitor, partial curve, poor fit].
For CC(=O)Nc1cccc(-n2cc3c(c2-c2ccccc2Cl)c(=O)n(C)c(=O)n3C)c1, the Potency was active: 89.1 µM.
With CN(C)Cc1ccccc1-c1nc(NC2CCNCC2)c2ccccc2n1 the Potency was active: 14.1 µM.
With CC(=O)c1ccc(S(=O)(=O)Nc2ccc(-c3ccc4nnc(C)n4n3)cc2)cc1 the Potency was inconclusive: 89.1 µM [inhibitor, single point].
In the case of Oc1cccc(C=Nc2cccc3ccccc23)c1O, the Potency is reported as active: 35.5 µM.
In the case of O=C(/C=C/c1cccs1)Nc1ccncc1, the Potency is reported as “inactive”.
With Cc1nn(-c2ccccc2)c(C)c1-c1cc(C(=O)N/N=C/c2ccc(O)cc2)[nH]n1 the Potency was active: 79.4 µM.
CCN(CC)CCCNC(=O)Cc1csc2nc(-c3ccc(Cl)cc3)cn12 was tested, and the Potency was “inactive”.
In the case of C#CCNC(=O)C1CCN(c2ccc(S(=O)(=O)N3CCOCC3)cc2Cl)CC1, the Potency is reported as inconclusive: 100 µM [inhibitor, single point].
In the case of O=C(CSc1ccc(-c2ccco2)nn1)NC1CCCCC1, the Potency is reported as inconclusive: 89.1 µM [inhibitor, single point].
In the case of COc1ccccc1/C=C/C=N/NC(=O)c1cc(-c2ccco2)[nH]n1, the Potency is reported as inconclusive: 79.4 µM [inhibitor, partial curve, poor fit].
With Cc1cccc(N2CCN(C(=O)c3noc4c3COc3ccc(C)cc3-4)CC2C)c1 (centres undefined) the Potency was inconclusive: 100 µM [inhibitor, single point].
With Nn1c(SCC(=O)NCCN2C(=O)CSC2=O)nnc1-c1ccc(OC(F)F)cc1 the Potency was “inactive”.
For N=C1/C(=C\c2ccc(Br)o2)C(=O)N=C2SC(CC(=O)N3CCOCC3)=NN12, the Potency was inconclusive: 25.1 µM [inhibitor, full curve, poor fit].
For O=C(N/N=C/C=C/c1ccco1)c1cccs1, the Potency was inconclusive: 79.4 µM [inhibitor, single point].
In the case of O=C(Nc1ncc(Cc2ccccc2)s1)C1CCCO1 (centres undefined), the Potency is reported as “inactive”.
In the case of COc1ccc(C2=NN(C(=O)CSc3nc4ncc(Cl)cc4[nH]3)C(c3ccco3)C2)cc1 (centres undefined), the Potency is reported as active: 89.1 µM.
With O=c1nc(/C=C/c2cccn2-c2ccc([N+](=O)[O-])cc2)cc(C(F)(F)F)[nH]1 the Potency was active: 89.1 µM.
In the case of COc1ccccc1N1CCN(C2CCCN(C(=O)c3cccc(-c4ccco4)c3)C2)CC1 (centres undefined), the Potency is reported as “inactive”.
For O=C(O)c1cccc(-c2ccc(/C=N/Nc3nn[nH]n3)o2)c1, the Potency was inconclusive: 89.1 µM [inhibitor, single point].
In the case of O=C(COc1ccccc1F)N1N=C(c2cccs2)CC1c1ccco1 (centres undefined), the Potency is reported as inconclusive: 100 µM [inhibitor, partial curve, poor fit].
In the case of CC(C)C1N=C2c3ccccc3N=C(SCC(=O)c3ccc(O)c(O)c3)N2C1=O (centres undefined), the Potency is reported as active: 20 µM.
With O=C(/C=C/c1ccco1)NC(=S)Nc1ccccc1 the Potency was inconclusive: 89.1 µM [inhibitor, partial curve, poor fit].
CCn1c(=O)c(=O)n(CC)c2cc(N3CCCCC3)c(NC(=O)c3ccccc3OC)cc21 was tested, and the Potency was “inactive”.
O=C(NCc1ccco1)C1CN(S(=O)(=O)c2ccccc2)CCN1S(=O)(=O)c1ccccc1 (centres undefined) was tested, and the Potency was “inactive”.
In the case of Cc1ccc(NC(=S)Nc2nc(CC(=O)Nc3ccccc3)cs2)cc1, the Potency is reported as inconclusive: 89.1 µM [inhibitor, single point].
For C/C(=N\Nc1cccc(C(F)(F)F)c1)c1ccc(O)cc1, the Potency was “inactive”.
With O=C(c1ccc(Nc2nccc(-c3cc4ccccc4s3)n2)cc1)N1CCC(N2CCCC2)CC1 the Potency was inconclusive: 37.7 µM [inhibitor, single point].
In the case of O=C(O)c1[nH]c2ccccc2c1C(c1cc(Cl)cc([N+](=O)[O-])c1O)c1c(C(=O)O)[nH]c2ccccc12, the Potency is reported as active: 50.1 µM.
In the case of COc1ccc(C(=O)N2CCC3(CCCN(c4ccccc4)C3)CC2)cc1, the Potency is reported as “inactive”.
With CCCCn1c(N)c(N(CC(C)C)C(=O)c2cc(-c3ccco3)nc3ccccc23)c(=O)[nH]c1=O the Potency was inconclusive: 100 µM [inhibitor, single point].
For Cn1cc(NC(=O)c2cc(NC(=O)c3cc(NC=O)cn3C)cn2C)cc1C(=O)NCCC(=N)N, the Potency was active: 0.794 µM.
With COc1cccc2c3c(c(C)nc12)CCN3c1ccccc1 the Potency was inconclusive: 79.4 µM [inhibitor, single point].
In the case of CCOc1cc(Br)cc(C(c2c(C(=O)O)[nH]c3ccccc23)c2c(C(=O)O)[nH]c3ccccc23)c1O, the Potency is reported as inconclusive: 56.2 µM [inhibitor, partial curve, poor fit].
For O=Cc1[nH]c2ccccc2c1N(C(=O)CCl)c1ccc([N+](=O)[O-])cc1, the Potency was “inactive”.
For Nc1cc(C(=O)O)ccc1N1CCCCC1, the Potency was active: 79.4 µM.
With CCCCC1=CC2=CC(=O)C(C)(OC(=O)CC)C(=O)C2=CN1Cc1ccco1 (centres undefined) the Potency was inconclusive: 50.1 µM [inhibitor, partial curve, poor fit].
For O=C(c1cccs1)C1CCCN(Cc2nc(Cc3ccccc3F)no2)C1 (centres undefined), the Potency was “inactive”.
N#Cc1ccccc1OCC(=O)OCCCOC(=O)COc1ccccc1C#N was tested, and the Potency was “inactive”.
In the case of CCOc1ccc(S(=O)(=O)c2cn(Cc3ccc(C)cc3)c3ccc(OC)cc3c2=O)cc1, the Potency is reported as “inactive”.
For O=C(OCc1ccco1)c1ccc(S(=O)(=O)N2CCCCC2)cc1, the Potency was active: 79.4 µM.
S=c1[nH]nc(-c2ccncc2)n1/N=C/c1ccccc1 was tested, and the Potency was “inactive”.
O=C(NN1C(=O)c2ccc3c4c(ccc(c24)C1=O)CC3)c1ccc(Br)cc1 was tested, and the Potency was inconclusive: 89.1 µM [inhibitor, partial curve, poor fit].
COC(=O)C1=C(CSc2nc3c(cc2C#N)CN(C)CC3)OC(N)=C(C#N)C1c1ccccc1F (centres undefined) was tested, and the Potency was inconclusive: 79.4 µM [inhibitor, partial curve].
With O=C(/C=C(\O)c1ccc(Cl)cc1)C(=O)NNC(=O)C(O)(c1ccccc1)c1ccccc1 the Potency was inconclusive: 89.1 µM [inhibitor, partial curve, poor fit].
For CSCCC1NC2(C(=O)Nc3ccc(Cl)cc32)[C@@H]2C(=O)N(C3CCCC3)C(=O)[C@H]12 (some centres undefined), the Potency was inconclusive: 89.1 µM [inhibitor, single point].
COc1cc2c(ccc3cc(OC)c(OC)c(O)c32)cc1O was tested, and the Potency was active: 7.94 µM.
In the case of O=C(O)c1cc(N/N=C/c2ccc(N3CCOCC3)s2)ccc1Cl, the Potency is reported as active: 28.2 µM.
For CCC1=C2CC[C@H]3C(=O)N(CC(=O)OC)C(=O)[C@H]3[C@H]2[C@@]2(C)C(=NCC(=O)OC)OC(=O)N2C1=O, the Potency was inconclusive: 89.1 µM [inhibitor, single point].
In the case of O=C(CCN1C(=O)/C(=C/c2ccco2)SC1=S)Nc1ccc(C(=O)O)c(O)c1, the Potency is reported as active: 20 µM.
CCOc1ccc2oc(=O)cc(CN3CCN(C(=O)c4ccc(Cl)cc4)CC3)c2c1 was tested, and the Potency was inconclusive: 89.1 µM [inhibitor, single point].
In the case of NC(=O)c1ccsc1NC(=O)COC(=O)c1ccc(Cl)cc1, the Potency is reported as “inactive”.
COc1ccc2nc(C)cc(Nc3ccc(N4CCN(C)CC4)cc3)c2c1 was tested, and the Potency was inconclusive: 79.4 µM [inhibitor, partial curve, poor fit].
In the case of O=C(Cn1c(=O)oc2cc(S(=O)(=O)NCc3ccccc3)ccc21)NCc1ccc(F)cc1, the Potency is reported as “inactive”.
With c1ccc2c(c1)CCCN2 the Potency was inconclusive: 56.2 µM [inhibitor, partial curve, poor fit].
With Cc1ccc(CN2CCN(/N=C/c3ccc(O)c(O)c3)CC2)cc1 the Potency was inconclusive: 56.2 µM [inhibitor, partial curve, poor fit].
In the case of O=C(NC(=S)Nc1ccc(S(=O)(=O)Nc2ncccn2)cc1)c1ccc(Br)cc1, the Potency is reported as “inactive”.
CCOc1ccc(/C=C/c2nc3ccccc3n2S(=O)(=O)c2cccc(Cl)c2)cc1 was tested, and the Potency was inconclusive: 89.1 µM [inhibitor, partial curve, poor fit].
With Cc1ccc(CNC(=O)c2nc(S(=O)(=O)Cc3ccc(C)cc3)ncc2Cl)cc1 the Potency was inconclusive: 89.1 µM [inhibitor, partial curve, poor fit].
In the case of C=CCn1c(SCC(=O)c2ccc(O)c(O)c2)nnc1-c1ccc(OC)cc1, the Potency is reported as active: 44.7 µM.
For C=C1c2cccc(OC)c2O[C@H](C(=O)OCC)[C@@H]1CCC(C)C, the Potency was inconclusive: 63.1 µM [inhibitor, partial curve, poor fit].
In the case of COc1cc(/C=N/NC(=O)c2ccc(-n3cccc3)cc2)ccc1O, the Potency is reported as inconclusive: 50.1 µM [inhibitor, partial curve, poor fit].
In the case of CCOC(=O)c1c(C)[nH]c(C)c1S(=O)(=O)N1CCN(c2ccc(Cl)cc2)CC1, the Potency is reported as “inactive”.
With Cc1cccc(NC(=O)CSc2ccc(-c3ccco3)nn2)c1C the Potency was inconclusive: 100 µM [inhibitor, single point].
O=C(O)c1cc(-c2ccco2)nc2ccccc12 was tested, and the Potency was active: 28.2 µM.
With CC(=O)c1ccc(S(=O)(=O)Nc2cccc(-n3cnnn3)c2)cc1 the Potency was inconclusive: 44.7 µM [inhibitor, partial curve, poor fit].
